Among the data in the RNAGym collection of RNA variant scans (doi:10.1093/nar/gkz1192) are self-cleavage values, retold here.

Read counts are not given, so values of variants with three or more changes are uncertain.

To fix the notation:
B1: CPEB3 Ribozyme (parent)
chain: UAACAGGGGGCCACAGCAGAAGCGUUCACGUCGCAGCCCCUGUCAGAUUCUGGUGAAUCUGCGAAUUCUGCUGUAUAUCUC

This series covers variants of B1. Description: self-cleavage, relative activity (ratio to wild type); higher = more cleavage; in vitro, sequencing. The procedure, abridged: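 CPEB3 self-cleaving ribozyme mutant libraries were made by rounds of error-prone PCR, barcoded, and transcribed in vitro with T7 RNA polymerase for 5 hours at 37°C. Cleavage occurred during transcription and a 15 min DNase I step before EDTA stop. RNAs were reverse transcribed with template switching and Illumina-sequenced, with DNA sequencing mapping barcodes to variants. Relative activity is the variant's cleaved/total read fraction divided by wild type's (minimum 5 reads), averaged across three batches.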
Turning to UAACAGGGGGCCACAGCAGAAGCGUUCACGUCGCAGCCCCUGUCAGAUUCUGGUGAAUCUGCGAAUUCCGCUGUACACCUC, the self-cleavage worked out at 0.78. To UAACAGGGGGCCACAGCAGAAGCGUUCACGUCGCAGCCCCUGUCAGAUUCUGGUGAAUCUGCGAGCUCUGCAGUAUAUCUC belongs 0.22. With UAACAGGGGGCCACAGCAGAAGCGUUCACGUCGCAGCCCCUGUCAGAUUCUGGUGAAUCUGCGAACUCUGCUGAAUAUCAC, the self-cleavage is 1.04. Then UAACAGGGGGCCACAGCAGAAGCGUUCACGUCGCAGCCCCUGUCAGAUUCUGGUGAAUCUGCGAAUUUUGCUGCAUUUCUC, with 1.15; and UAACAGGGGGCCACAGCAGAAGCGUUCACGUCGCAGCCCCUGUCAGAUUCUGGUGAAUCUGCGAGUUCUGCUGUAUGUCCC, with 0.35. Take UAACAGGGGGCCACAGCAGAAGCGUUCACGUCGCAGCCCCUGUCAGAUUCUGGUGAAUCUGCGAAUGCAGCUGUAAAUCUC: the self-cleavage worked out at 0.18. On to UAACAGGGGGCCACAGCAGAAGCGUUCACGUCGCAGCCCCUGUCAGAUUCUGGUGAAUCGGCGAGCUCUGCUGCAUAUCUC, for which the self-cleavage is 0.21. To UAACAGGGGGCCACAGCAGAAGCGUUCACGUCGCAGCCCCUGUCAGAUUCUGGUGAAUCUCCGUAUUCUGCAGUAUAUCUC belongs 0.29. UAACAGGGGGCCACAGCAGAAGCGUUCACGUCGCAGCCCCUGUCAGAUUCUGGUGAAUCUGCAGAUUCCGCUGUAUAUCUC: the self-cleavage stood at 0.25. Regarding UAACAGGGGGCCACAGCAGAAGCGUUCACGUCGCAGCCCCUGUCAGAUUCUGGUGAAUCUGCGGAUUCUGGAGUAUACCCC, the self-cleavage turned out to be 0.24.

Turning to UAACAGGGGGCCACAGCAGAAGCGUUCACGUCGCAGCCCCUGUCAGAUUCUGGUGAAUCUGCUAAUCCUGCUGUACAUCUC, the self-cleavage was found to be 0.24. As for UAACAGGGGGCCACAGCAGAAGCGUUCACGUCGCAGCCCCUGUCAGAUUCUGGUGAAUCUGCGGAUUCUGCUGUGUACCUC, the self-cleavage was 0.55.

In the case of UAACAGGGGGCCACAGCAGAAGCGUUCACGUCGCAGCCCCUGUCAGAUUCUGGUGAAUCUGCGUAUUCUGCUGUGUGUCUC, the self-cleavage is 0.07.

On to UAACAGGGGGCCACAGCAGAAGCGUUCACGUCGCAGCCCCUGUCAGAUUCUGGUGAAUCUGCGUAUUCUGCCGUGUAUCUC, for which the self-cleavage is 0.35.

With UAACAGGGGGCCACAGCAGAAGCGUUCACGUCGCAGCCCCUGUCAGAUUCUGGUGAAUCUGCGAACUCCGCUGCAUAUCUC, the self-cleavage was 0.22. For UAACAGGGGGCCACAGCAGAAGCGUUCACGUCGCAGCCCCUGUCAGAUUCUGGUGAAUCUGCGAACUCCGCUGAAUAUCUC, the self-cleavage was 0.28. Then UAACAGGGGGCCACAGCAGAAGCGUUCACGUCGCAGCCCCUGUCAGAUUCUGGUGAAUCUGCGAAUUCCGCAGUAUGUCUC, with 0.4; and UAACAGGGGGCCACAGCAGAAGCGUUCACGUCGCAGCCCCUGUCAGAUUCUGGUGAAUCUGCGUAUUCUGCUGAGUAUCCC, with 0.68; and UAACAGGGGGCCACAGCAGAAGCGUUCACGUCGCAGCCCCUGUCAGAUUCUGGUGAAUCUGCGAACUCAGCUCUAUAUCUC, with 0.26.

Turning to UAACAGGGGGCCACAGCAGAAGCGUUCACGUCGCAGCCCCUGUCAGAUUCUGGUGAAUCUGCGAGUUCUGCAGUAAAUCUC, the self-cleavage worked out at 0.26.

Regarding UAACAGGGGGCCACAGCAGAAGCGUUCACGUCGCAGCCCCUGUCAGAUUCUGGUGAAUCUGCGAGUUCCGCCGUUUAUCUC, the self-cleavage was 0.22.

For the variant UAACAGGGGGCCACAGCAGAAGCGUUCACGUCGCAGCCCCUGUCAGAUUCUGGUGAAUCUGCGAACUCUGCUGUUAAUCAC, the self-cleavage came to 0.41. Then UAACAGGGGGCCACAGCAGAAGCGUUCACGUCGCAGCCCCUGUCAGAUUCUGGUGAAUCUCCGGAUUCCGCUGUAUAUCUC, with 0.23; and UAACAGGGGGCCACAGCAGAAGCGUUCACGUCGCAGCCCCUGUCAGAUUCUGGUGAAUCUGCGAAUUCCGCUGUAUAUAUU, with 0.71; and UAACAGGGGGCCACAGCAGAAGCGUUCACGUCGCAGCCCCUGUCAGAUUCUGGUGAAUCUGUGAAUUCUGCUGCGUAUCUC, with 0.26.

Take UAACAGGGGGCCACAGCAGAAGCGUUCACGUCGCAGCCCCUGUCAGAUUCUGGUGAAUCUGCGAAAUCUGCUGUACGUCUC: the self-cleavage turned out to be 0.33. Then UAACAGGGGGCCACAGCAGAAGCGUUCACGUCGCAGCCCCUGUCAGAUUCUGGUGAAUCUGCGAAACCUGCUGUAUACCUC, with 0.32; and UAACAGGGGGCCACAGCAGAAGCGUUCACGUCGCAGCCCCUGUCAGAUUCUGGUGAAUCUGCGAUUUCUACCGUAUAUCUC, with 0.25; and UAACAGGGGGCCACAGCAGAAGCGUUCACGUCGCAGCCCCUGUCAGAUUCUGGUGAAUCUGCGUAUCCCGCUGUAUAUCUC, with 0.19. Then UAACAGGGGGCCACAGCAGAAGCGUUCACGUCGCAGCCCCUGUCAGAUUCUGGUGAAUCUGCGAACUCUGCUGUUUACCUC, with 0.3; and UAACAGGGGGCCACAGCAGAAGCGUUCACGUCGCAGCCCCUGUCAGAUUCUGGUGAAUCUGCGAAUCCUGCUGUAAGUCUC, with 0.43.
